The text below walks through data of PubChem BioAssay (NCI).

Each structure is given as a SMILES string. “And” between values parts separate entries of the source, which are not always exact repeats. Identical values can stand only once.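 Cells were grown in 96-well plates and exposed to each compound for 48 hours at five concentrations; endpoints were interpolated linearly between bracketing concentrations, or set to the highest concentration if not reached. Here, GI50 denotes the concentration required for 50% inhibition of growth. TGI denotes the concentration required for complete inhibition of growth.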

The assay has as its system NCI-H322M lung. The experiment in a line: DTP human tumour cell line panel, 48 h.

With `CCOc1ccccc1N=Nc1c(C)[nH]n(-c2nc(-c3ccccc3)cs2)c1=O`, the GI50 (as a rule, the concentration giving 50% growth inhibition) was 93.2 µM and the TGI (commonly the concentration at which net growth stops) was over 100 µM.

Compound `COc1ccc(C)cc1Nc1nnc(-c2ccccc2N)s1` yielded a TGI of over 100 µM.

The compound `O=C1c2c(O)cccc2C(C2OC(CO)C(O)C(O)C2O)c2cc(CO)cc(O)c21` (stereo not given) came in with a TGI of over 100 µM.

`COC(=O)c1cc(Cl)ccc1NC(=O)c1ccc([N+](=O)[O-])cc1` displayed a TGI of 72.9 µM.

For `CC(=O)Oc1c2oc3ccc(Cl)cc3c(=O)c2c(O)c2ccsc12`, the TGI was over 100 µM.

The compound `C[Si](C)(C)c1ccc(-c2sc(-c3ccc([Si](C)(C)C)s3)c3c2C[Si]2(C3)Cc3c(-c4ccc([Si](C)(C)C)s4)sc(-c4ccc([Si](C)(C)C)s4)c3C2)s1` came in with a TGI of over 100 µM.

For `CCOC(=O)c1cc2c3c(c(C(C)=O)c(O)c2[nH]1)N(CC(C)CC)CC3` (stereo not given), the TGI is over 100 µM.

As for `N#Cc1ccccc1-c1nc2c3c(c(N)ccc3n1)C(=O)c1ccccc1-2`, the TGI is over 100 µM.

Consider `O=c1oc2ccccc2cc1-c1cn2cc(Cl)ccc2n1`, for which the TGI was over 43.4 µM.

Compound `C/C(Nc1ccc(F)cc1)=C1/CCOC1=O` displayed a TGI of over 100 µM.

For `Clc1nc(Cl)c2ncn(C/C=C/COc3cccc(OC/C=C/Cn4cnc5c(Cl)nc(Cl)nc54)c3)c2n1`, the GI50 is 18.2 µM and the TGI was found to be 39.1 µM.

Regarding `COc1ccc(C(=O)c2cc3c(N)c(C(=O)Nc4cccc5ccccc45)sc3nc2C)cc1`, the GI50 is 0.3 µM and the TGI was over 50 µM.

Compound `COC(=O)C(CSSC[C@H](N/C(C)=C/C(C)=O)C(=O)OC)N/C(C)=C/C(C)=O` (stereo not given in full) had a TGI of over 100 µM.

Regarding `NNC(=O)Cn1c2ccc(Br)cc2c2nc3ccccc3nc21`, the TGI was over 100 µM.

Compound `CCOC(=O)c1cc2c(C(=O)c3ccc([N+](=O)[O-])cc3)c(C(C)=O)ccc2[nH]1` displayed a TGI of over 100 µM.

As for `S=C1SCN(Cc2ccco2)CN1c1ccc(Br)cc1`, the TGI was 62.5 µM.

Take `CCOC(=O)Cc1cc(OC)c(OC)cc1/C(Cl)=C(\C=O)c1ccc(OC)c(OC)c1`: the TGI was 55.5 µM.

Compound `c1ccc2c(c1)CCc1c-2n(CCN2CCOCC2)c2ccccc12` displayed a TGI of over 100 µM.

Compound `Cc1cc(Cl)ccc1NC(=O)CC/C(CC(=O)C(C)C)=N\NC(=O)C[n+]1ccccc1` had a TGI of over 100 µM.

Turning to `O=C(Nc1cccc(NC(=O)Nc2cc(C(F)(F)F)ccc2Cl)c1)Nc1cc(C(F)(F)F)ccc1Cl`, the GI50 was 5.8 µM and the TGI was over 100 µM.

The compound `COc1ccc(C(SC2C(O)C(CO)OC2n2ccc(N)nc2=O)(c2ccccc2)c2ccc(OC)cc2)cc1` (stereo not given) came in with a TGI of 58.5 µM.

Regarding `CCOc1cc(C2CC(c3ccc(NS(=O)(=O)c4cc([N+](=O)[O-])ccc4C)cc3)=NN2c2ccc([N+](=O)[O-])cc2[N+](=O)[O-])ccc1O` (stereo not given), the TGI was found to be 26.8 µM.

Take `CCc1ccc(NC(=O)COC(=O)c2cc([N+](=O)[O-])ccc2Sc2nnnn2C)cc1`: the GI50 is 32.1 µM and the TGI is over 100 µM.

With `C(CCCCc1nnc(N2CCCCC2)o1)CCCc1nnc(N2CCCCC2)o1`, the TGI was over 100 µM.

For `CCCCCC(C)SC1(C(=O)OC)CC(OC(C)=O)C(NC(C)=O)C([C@H](OC(C)=O)[C@@H](COC(C)=O)OC(C)=O)O1` (stereo not given in full), the TGI was over 100 µM.

In turn, `COc1ccc(C(C#N)Cc2cc(OC)c(OC)c(OC)c2)cc1` (stereo not given) showed a TGI of over 100 µM.

Turning to `COc1ccc(/C=C2\S/C(=N/Nc3nc(-c4ccccc4)cs3)NC2=O)cc1OC`, the TGI is over 100 µM.

As for `CC(=O)c1c(C(F)(F)F)n([O-])c2cc(Cl)c(Cl)cc2[n+]1=O`, the TGI was determined as 3.07 µM.

`Cc1ccc(N2C(=O)C3C=CC(n4[nH]c(=O)n(Cc5ccccc5)c4=O)CC3C2=O)cc1` (stereo not given) came in with a TGI of over 100 µM.

Take `CCOC(=O)c1cnc2oc3ccc(O)cc3c2c1-c1ccccc1`: the TGI was over 100 µM.

`CCNC(=O)c1cc(/C=C/c2ccc([N+](=O)[O-])o2)nc2ccccc12` returned a TGI of over 100 µM.

For `COc1ccc(/C=C\c2cc(OC)c(OC)c(OC)c2)cc1OC`, the TGI was 40.4 µM and > 100 µM.

`COc1cc(C2C(Cl)C(=O)N2NC(=O)c2ccc(N)cc2)ccc1O` (stereo not given) yielded a TGI of 65 µM.

Turning to `Nc1[nH]nc2nc(-c3cccs3)cc(C(F)(F)F)c12`, the GI50 was over 25 µM and the TGI was over 25 µM.

For the compound `Cc1c2c(n(CCc3ccc(Cl)cc3)c1C)NC(c1ccccc1)C(C#N)S2(=O)=O` (stereo not given), the TGI is over 100 µM.

Consider `CCCOC(=O)N1CCN(/[N+]([O-])=N/Oc2ccc([N+](=O)[O-])cc2[N+](=O)[O-])CC1`, for which the GI50 was 3.87 µM and the TGI stood at 16.3 µM.

For the compound `CC1(O)CC(=O)c2c(cc3ccc(-c4c5c(c(O)c6c(O)cccc46)C(=O)CC(C)(O)C5)c(O)c3c2O)C1` (stereo not given), the TGI turned out to be 1.21 µM.

The compound `O=C1CC(S(=O)(=O)O)C=C1Nc1cccc(Cl)c1` (stereo not given) came in with a TGI of over 100 µM.

`CC1(C)[C@@H](OC(N)=O)[C@H]2O[C@H]2[C@]2(CO)[C@H]3CC[C@]4(C)[C@@H](c5ccc(=O)oc5)[C@@H](Cl)C[C@]4(O)C3=CC[C@@H]12`: the GI50 is 0.00788 µM and the TGI turned out to be 0.0274 µM.

In the case of `CN(C)c1ccc2nc3ccc(=[N+](C)C)cc-3sc2c1`, the GI50 is 0.65 µM and 1.29 µM; the TGI is 15.2 µM and 7.76 µM.

`OC(CCNCc1ccccc1)c1ccc2ccccc2c1` (stereo not given) showed a TGI of 58.8 µM.

Turning to `O=C(Cn1c(C(=O)/C=C/c2cccs2)nc2ccccc21)c1ccc(Cl)cc1`, the TGI was over 100 µM.

The compound `O=c1cc(N2CCN(c3cc(=O)n4ccccc4n3)CC2)oc2ccccc12` yielded a TGI of over 100 µM.

As for `COc1ccc2c(c1)C(=O)c1c-2c(N(C)C)nc2ccccc12`, the GI50 was over 100 µM and the TGI is over 100 µM.

`O=c1ccn(CC2(CO)CC(Cc3ccccc3)C2)c(=O)[nH]1` (stereo not given) displayed a TGI of over 100 µM.

As for `COc1ccc(OC)c2c1C(=O)C1CC1(Br)C2=O` (stereo not given), the TGI is over 100 µM.

In the case of `COc1cc(C(=O)NC2CCN(C)CC2)c(F)cc1Nc1ncc2c(n1)N(C1CCCC1)CC(F)(F)C(=O)N2C`, the GI50 was under 0.0233 µM and the TGI worked out at 13.9 µM.

Regarding `O=C(O)c1ccn(-c2cccc(-n3ccc(C(=O)O)n3)n2)n1`, the TGI was over 100 µM.

In turn, `CC1(C)CC(C)(C)C1=NNC(N)=O` had a TGI of over 100 µM.

On to `c1cn(C23C4C5C6C4C2C6C53)cn1` (stereo not given), for which the TGI is over 100 µM.

Regarding `Oc1c([Si](c2ccccc2)(c2ccccc2)c2ccccc2)cc2ccccc2c1-c1c(O)c([Si](c2ccccc2)(c2ccccc2)c2ccccc2)cc2ccccc12`, the TGI was over 100 µM.

Consider `CCCCN(CCCC)c1ccc(C(=N)c2ccc(N(CCCC)CCCC)cc2)cc1`, for which the GI50 is 1.69 µM and the TGI was 3.27 µM.

`C/C=C(/C)C(=O)O[C@H](C[C@@H](C)[C@H]1CC(c2ccoc2)OC1=O)[C@@]1(C)C(=O)CCC2O[C@]21C` (stereo not given in full) returned a TGI of over 100 µM.

In turn, `CCOC(=O)c1nc2ccc(C(F)(F)F)cc2nc1Oc1cc(OC)cc(OC)c1` registered a TGI of over 100 µM.

Compound `CC1CC/C(=C\c2ccc(Cl)cc2)C2OC(N)=C(C#N)C(c3ccc(Cl)cc3)=C12` (stereo not given) showed a TGI of 32.2 µM.

`COC(=O)C1=CC2C(=O)OC1CC2C#N` (stereo not given) showed a TGI of over 100 µM.

`CCOC(=O)C(NC(=O)CC)(Nc1cc(C)on1)C(F)(F)F` (stereo not given): the TGI was over 100 µM.

For the compound `CC1=C2C(=CC(C)(C)C2O)C(=O)C(C)(O)C12CC2` (stereo not given), the TGI is 0.316 µM.

`COc1c(Cl)cc(NC(=S)C#N)cc1Cl` yielded a TGI of 72.9 µM.

Consider `CCN(C(=S)N[C@H](C(=O)N[C@@H](C)C(=O)OC)C(C)C)c1ccccc1`, for which the TGI was over 100 µM.

`O=C1c2cc3c(cc2CC12Cc1ccc4c(c1C2=O)CCCC4)CCCC3` (stereo not given) displayed a TGI of over 100 µM.

Turning to `CCSCCCN(CCCSCC)CCCSCC`, the TGI was over 100 µM.

As for `COc1ccc(/C=N/N=C(\N)NO)c(OC)c1`, the TGI is over 100 µM.

The compound `COc1ccc2ccccc2c1C1OC(=O)c2ccccc21` (stereo not given) yielded a TGI of over 100 µM.

Compound `CC#CC(=O)SCCNC(=O)CC` registered a TGI of over 10 µM.

With `CC1=NN(c2nc(N)nc(/C(C#N)=C/c3cccn3-c3cc(Cl)cc(Cl)c3)n2)C(C)(C)C1`, the TGI is over 100 µM.

In the case of `C=C1C(=O)OC2C1C(OC(=O)/C(C)=C/C)CC(O)(CCl)C1C(O)C3OC3(C)C21O` (stereo not given), the TGI is over 50 µM.

Regarding `O=C(/C=C/c1ccc([N+](=O)[O-])cc1)c1ccc2c3c(cccc13)CC2`, the GI50 was 13.7 µM and the TGI is over 100 µM.

For `Cc1cn(Cc2cnnn2CC2OC(n3cc(C)c(=O)[nH]c3=O)CC2O)c(=O)[nH]c1=O` (stereo not given), the TGI was over 100 µM.

`CSC1=N/C(=C\c2ccco2)C(=O)N1CN1CCOCC1`: the TGI is over 100 µM.

For `COC(=O)c1c(O)ccc2c1c1c(n2Cc2cccc(C)c2)C(=O)c2ccccc2C1=O`, the TGI stood at 22.2 µM.

In turn, `COc1ccc2c(c1)c(CC(=O)O)c(C)n2C(=O)c1ccc(Cl)cc1` returned a TGI of over 100 µM.

`CCN(CC)c1ccc2cc(C(=O)Nc3cccc4ccccc34)c(=N)oc2c1` gave a TGI of over 100 µM.

`CC[N+]1(C)CCC(O)(c2ccc(Cl)c(Cl)c2)C(C(=O)c2ccc(Cl)c(Cl)c2)C1` (stereo not given) showed a TGI of over 10 µM.

`CC(=O)C1C(=O)C(=O)N(c2ccccc2C(C)C)C1=O` (stereo not given) showed a concentration for total growth inhibition (TGI) of over 100 µM.

On to `O=C(COc1ccc(/C=C2\Oc3ccccc3C2=O)cc1)Nc1nc2c(s1)CCCC2`, for which the GI50 is 52 µM and the TGI was over 100 µM.

For the compound `O=C1C(=O)c2ccccc2C(O)=C1CCCc1ccc(Oc2ccccc2)cc1`, the TGI is over 100 µM.

Compound `COc1ccc(C2=NN(c3ccccc3)C[N+](c3ccc(OC)cc3)=N2)cc1` came in with a TGI of 75.6 µM.

`O=c1c2ccccc2nc(-c2ccccc2)n1NC1OC(CO)C(O)C(O)C1O` (stereo not given) showed a TGI of over 100 µM.

With `Cc1ccc(Nc2nc(C)c(C(/C=C/c3ccc(/C=C/C(=N/NC(=O)C[n+]4ccccc4)c4sc(Nc5ccc(C)cc5[N+](=O)[O-])nc4C)cc3)=N\NC(=O)C[n+]3ccccc3)s2)c([N+](=O)[O-])c1`, the TGI was over 100 µM.

With `CC1=C(CO)C(=O)O[C@@H]([C@@H](C)[C@H]2CC[C@H]3[C@@H]4C[C@@H](O)[C@@]5(O)CC=CC(=O)[C@]5(C)[C@H]4CC[C@]23C)C1`, the TGI was over 100 µM.

On to `Nc1nc(Nc2ccc(C3CCC(N4CCOCC4)CC3)cc2)nn1-c1ccccn1` (stereo not given), for which the GI50 is 21.2 µM and the TGI is over 100 µM.

Take `Cc1c2c(nn1C)CSCc1cc(n(C)n1)CSc1cc(c3ccccc3c1)OCCCc1c(C(=O)O)n(C)c3c-2c(Cl)ccc13`: the GI50 was 5.23 µM and the TGI came to 18.2 µM.

Take `C=C(C)C(O)C(O)c1c(OC)ccc2ccc(=O)oc12` (stereo not given): the TGI was over 100 µM.
